# Assay results taken from PubChem BioAssay (NCATS).
# Where “and” joins values, the source holds several entries; their conditions need not be identical. Identical values can stand only once. Inconclusive means that the source gave no clear call. Such entries were picked first, then a sample of the others. Where the call is inconclusive, the potency comes from a doubtful curve fit. Calls of active or inactive are those of the source. Calls come from the whole dose curve; as a rule, active = well fitted curve in the direction sought with a large enough effect; inconclusive = small, poorly fitted or top-dose-only effect, or another doubt; inactive = no such curve, though single readings can be large; an effect the other way counts as inactive or inconclusive.
# Legend:
# [1] = P-glycoprotein substrates identified in KB-8-5-11 adenocarcinoma cell line, qHTS therapeutic library screen (AID 1346987); note: nearly all actives have a fitted effect of over 65% in size
# Procedure, shortened: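 KB-8-5-11: colchicine-selected sub-line of KB-3-1 over-expressing P-gp; assay medium lacked colchicine. 72 h drug exposure at 37 degree C, CellTiter-Glo.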
# [2] = Primary qHTS for inhibitors of nuclear receptor binding SET domain protein 2 (NSD2) in an isogenic RCH-ACV NSD2 p.E1099K mutant (9B) (AID 1645876); note: nearly all actives have a fitted effect of over 70% in size
# CRL-7250 = normal cell line; assay: Cytotoxic Profiling of Annotated Libraries Using Quantitative High-Throughput Screening (AID 1296008); settings: Five cell lines viability, CellTiter-Glo ATP luminescence, 48-72 h; max response: hits give low values; note: nearly all actives have a fitted effect of over 60% in size; for max response: % is set by controls: 0 for no effect and ±100 for the full control effect
# Procedure, shortened: (§1)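 Cytotoxicity was measured as CellTiter-Glo ATP luminescence, read after 10 min at room temperature. Compound treatment of the cells lasted 48 or 72 hr at 37 degrees Celsius in a qHTS format.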
# HaCat = assay: as above; settings: Five cell lines viability, CellTiter-Glo ATP luminescence, 48-72 h; max response: hits give low values
# Procedure, shortened: as §1
# KB-3-1 = assay: as above; settings: Five cell lines viability, CellTiter-Glo ATP luminescence, 48-72 h; max response: hits give low values
# Procedure, shortened: as §1
# C33A = assay: Primary qHTS to identify gynecologic anti-cancer compounds using libraries of approved drugs and bioactive compounds (AID 1345084); settings: Gynecologic cancer cell panel viability, ATPlite luminescence, 48 h; series mostly up to 57.5 µM; note: nearly all actives have a fitted effect of over 55% in size; for activity change, negative = cytotoxicity: % is set by controls: 0 for no effect and ±100 for the full control effect
# Procedure, shortened: (§2)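 Cytotoxicity screen measuring ATP content by luciferase luminescence. Each compound is applied at five concentrations for 48 h at 37 C with 5% CO2.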
# CAOV3 = assay: as above; settings: Gynecologic cancer cell panel viability, ATPlite luminescence, 48 h; activity change, negative = cytotoxicity: at 57.5 µM (top of the series)
# Procedure, shortened: as §2
# CASKI = assay: as above; settings: Gynecologic cancer cell panel viability, ATPlite luminescence, 48 h; series mostly up to 57.5 µM
# Procedure, shortened: as §2
# Es-2 = assay: as above; settings: Gynecologic cancer cell panel viability, ATPlite luminescence, 48 h; series mostly up to 57.5 µM
# Procedure, shortened: as §2
# HeLa = assay: as above; settings: Gynecologic cancer cell panel viability, ATPlite luminescence, 48 h; activity change, negative = cytotoxicity: at 57.5 µM (top of the series)
# Procedure, shortened: as §2
# Hek293T = assay: as above; settings: Gynecologic cancer cell panel viability, ATPlite luminescence, 48 h, control line for the selectivity index; activity change, negative = cytotoxicity: at 57.5 µM (top of the series) unless noted
# Procedure, shortened: as §2
# OV90 = assay: as above; settings: Gynecologic cancer cell panel viability, ATPlite luminescence, 48 h; series mostly up to 57.5 µM
# Procedure, shortened: as §2
# PA-1 = assay: as above; settings: Gynecologic cancer cell panel viability, ATPlite luminescence, 48 h; series mostly up to 57.5 µM
# Procedure, shortened: as §2
# SKOV3 = assay: as above; settings: Gynecologic cancer cell panel viability, ATPlite luminescence, 48 h; series mostly up to 57.5 µM
# Procedure, shortened: as §2
# Tov-21-G = assay: as above; settings: Gynecologic cancer cell panel viability, ATPlite luminescence, 48 h; activity change, negative = cytotoxicity: at 57.5 µM (top of the series) unless noted
# Procedure, shortened: as §2
# Tov112D = assay: as above; settings: Gynecologic cancer cell panel viability, ATPlite luminescence, 48 h; series mostly up to 57.5 µM
# Procedure, shortened: as §2
# JEG-3 = assay: as above; settings: Gynecologic cancer cell panel viability, ATPlite luminescence, 48 h; series mostly up to 57.5 µM
# Procedure, shortened: as §2
# [3] = system: Zika virus NS2B-NS3 protease (unlinked complex); assay: Primary screen GU Rhodamine qHTS for Zika virus inhibitors: Unlinked NS2B-NS3 protease assay (AID 1347159); note: nearly all actives have a fitted effect of over 60% in size
# Procedure, shortened: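 Compounds, tested up to 114 microM, were incubated for 15 minutes with 25 nM unlinked NS2B-NS3 protease at pH 8.0. Cleavage of 1.5 microM Rhodamine110 substrate was then followed by fluorescence for 15 minutes.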
# [4] = Primary qHTS for inhibitors of nuclear receptor binding SET domain protein 2 (NSD2) in an RCH-ACV wild type WT cells (2C) (AID 1645877); settings: activity change, negative = cell killing: at 44.9 µM (top of the series) unless noted; note: nearly all actives have a fitted effect of over 70% in size
# NIH3T3 = assay: Cytotoxic Profiling of Annotated Libraries Using Quantitative High-Throughput Screening (AID 1296008); settings: Five cell lines viability, CellTiter-Glo ATP luminescence, 48-72 h; max response: hits give low values; note: nearly all actives have a fitted effect of over 60% in size; for max response: % is set by controls: 0 for no effect and ±100 for the full control effect
# Procedure, shortened: as §1
# Potency is the fitted concentration of half-maximal effect; tags give direction and shape of the fitted curve.
compound,measurement,setting,value
CC1OC2OC3C(OCC(O)C3O)OC(=O)C34CCC(C)(C)CC3C3=CCC5C6(C)CC(O)C(OC7OC(CO)C(O)C(O)C7OC7OCC(OC(=O)CC(C)(O)CC(=O)OC1C(OC1OCC(O)C(O)C1O)C2O)C(O)C7O)C(C)(CO)C6CCC5(C)C3(C)CC4O (configuration not stated),Potency,[1],"inconclusive: 11.2 µM [inhibitor, single point]"
same,Potency,[2],active: 2.52 µM
same,Potency,CRL-7250,active: 7.96 µM
same,Potency,HaCat,"inconclusive: 11.2 µM [inhibitor, partial curve, poor fit]"
same,Potency,KB-3-1,"inconclusive: 14.2 µM [inhibitor, single point]"
same,Potency,C33A,"inconclusive: 10 µM [cytotoxic, single point]"
same,Potency,CAOV3,"inconclusive: 8.91 µM [cytotoxic, partial curve, poor fit]"
same,Potency,CASKI,"inconclusive: 10 µM [cytotoxic, single point]"
same,Potency,Es-2,"inconclusive: 11.2 µM [cytotoxic, single point]"
same,Potency,HeLa,"inconclusive: 17.8 µM [cytotoxic, single point]"
same,Potency,Hek293T,"inconclusive: 17.8 µM [cytotoxic, single point]"
same,Potency,OV90,active: 10 µM
same,Potency,PA-1,"inconclusive: 17.8 µM [cytotoxic, single point]"
same,Potency,SKOV3,"inconclusive: 15.8 µM [cytotoxic, single point]"
same,Potency,Tov-21-G,"inconclusive: 14.1 µM [cytotoxic, single point]"
same,Potency,Tov112D,"inconclusive: 14.1 µM [cytotoxic, single point]"
COC(=O)CC1OC(C)C2=C(O)c3c(O)cccc3C(=O)C23OC13 (configuration not stated),Potency,[2],active: 2.84 µM
same,Potency,CRL-7250,active: 4.04 µM
same,Potency,HaCat,"inconclusive: 20.2 µM [inhibitor, single point]"
same,Potency,KB-3-1,"inconclusive: 12.8 µM [inhibitor, single point]"
same,Potency,C33A,active: 12.6 µM
same,Potency,CAOV3,active: 3.55 µM
same,Potency,CASKI,"inconclusive: 14.1 µM [cytotoxic, single point]"
same,Potency,Es-2,active: 10 µM
same,Potency,HeLa,"inconclusive: 12.6 µM [cytotoxic, partial curve, poor fit]"
same,Potency,Hek293T,active: 10 µM
same,Potency,JEG-3,"inconclusive: 14.1 µM [cytotoxic, single point]"
same,Potency,OV90,active: 10 µM
same,Potency,PA-1,active: 3.98 µM
same,Potency,SKOV3,"inconclusive: 20 µM [cytotoxic, single point]"
same,Potency,Tov-21-G,active: 6.31 µM
COc1ccccc1S(=O)(=O)Nc1ccc2c(c1)CN(C)C(=O)N2,Potency,[1],"inconclusive: 13 µM [inhibitor, partial curve]"
same,Potency,[3],inactive
same,Potency,[4],active: 1.63 µM
same,Potency,CRL-7250,"inconclusive: 16.4 µM [inhibitor, partial curve]"
same,max response,HaCat,inactive: 2.92%
same,Potency,KB-3-1,"inconclusive: 23.1 µM [inhibitor, single point]"
same,Potency,NIH3T3,"inconclusive: 7.31 µM [inhibitor, partial curve]"
same,Potency,Es-2,"inconclusive: 20 µM [cytotoxic, partial curve, poor fit]"
same,Potency,HeLa,"inconclusive: 28.2 µM [cytotoxic, partial curve, poor fit]"
same,Potency,JEG-3,inactive
same,Potency,SKOV3,"inconclusive: 39.8 µM [cytotoxic, partial curve, poor fit]"
same,Potency,Tov-21-G,"inconclusive: 20 µM [cytotoxic, single point]"
FC(F)(F)c1ccc(Nc2nc(-c3c(C(F)(F)F)nc4ccccn34)cs2)cc1,Potency,[2],active: 0.417 µM
same,Potency,CRL-7250,active: 5.8 µM
same,Potency,HaCat,"inconclusive: 29.1 µM [inhibitor, single point]"
same,Potency,KB-3-1,active: 0.206 µM
same,Potency,NIH3T3,active: 1.3 µM
same,Potency,C33A,active: 20 µM
same,Potency,CAOV3,"inconclusive: 25.1 µM [cytotoxic, partial curve, poor fit]"
same,Potency,Hek293T,"inconclusive: 1.12 µM [cytotoxic, full curve]"
same,Potency,JEG-3,"inconclusive: 1.78 µM [cytotoxic, full curve, poor fit]"
same,Potency,OV90,"inconclusive: 8.91 µM [cytotoxic, partial curve]"
same,Potency,PA-1,active: 1.26 µM
same,Potency,SKOV3,"inconclusive: 1.58 µM [cytotoxic, partial curve, poor fit]"
same,Potency,Tov-21-G,"inconclusive: 1.41 µM [cytotoxic, full curve]"
same,Potency,Tov112D,active: 0.708 µM
CC(=O)[C@H]1CC[C@H]2[C@@H]3CCC4=CC(=O)CC[C@]4(C)[C@H]3CC[C@]12C,Potency,[1],active: 11.8 µM
same,Potency,CRL-7250,"inconclusive: 37.2 µM [inhibitor, single point]"
same,Potency,HaCat,"inconclusive: 23.5 µM [inhibitor, partial curve, poor fit]"
same,Potency,KB-3-1,"inconclusive: 13 µM [inhibitor, partial curve]"
CCCCNc1ncc(-c2ccc(CN3CCOCC3)cn2)c(NC2CCC(O)CC2)n1 (configuration not stated),Potency,[1],"inconclusive: 2 µM [inhibitor, full curve]"
same,Potency,[2],"inconclusive: 399 nM [inhibitor, full curve] and inconclusive: 1.62 µM [inhibitor, full curve]"
same,max response,CRL-7250,inactive: -14.5%
same,Potency,HaCat,"inconclusive: 2.24 µM [inhibitor, full curve]"
same,Potency,KB-3-1,"inconclusive: 3.55 µM [inhibitor, partial curve]"
same,Potency,NIH3T3,"inconclusive: 1.59 µM [inhibitor, partial curve]"
same,Potency,C33A,inactive
same,Potency,CAOV3,inactive
same,Potency,HeLa,"inconclusive: 3.98 µM [cytotoxic, single point]"
same,Potency,SKOV3,"inconclusive: 10 µM [rising, single point]"
CCC(C(C)O)n1ncn(-c2ccc(N3CCN(c4ccc(OCC5COC(Cn6cncn6)(c6ccc(F)cc6F)C5)cc4)CC3)cc2)c1=O (configuration not stated),Potency,[1],active: 18.4 µM
same,Potency,[3],"inconclusive: 79.4 µM [inhibitor, single point]"
same,Potency,[2],active: 2.05 µM
same,Potency,[4],"inconclusive: 2.58 µM [inhibitor, full curve]"
same,Potency,CRL-7250,"inconclusive: 29.1 µM [inhibitor, single point]"
same,Potency,HaCat,"inconclusive: 20.6 µM [inhibitor, single point]"
same,Potency,KB-3-1,"inconclusive: 11.6 µM [inhibitor, partial curve]"
same,Potency,NIH3T3,"inconclusive: 3.66 µM [inhibitor, partial curve]"
same,Potency,Hek293T,"inconclusive: 35.5 µM [cytotoxic, single point]"
COc1cc(C2c3cc4c(c(O)c3CC(CO)C2C(=O)O)OCO4)cc(OC)c1O (configuration not stated),Potency,[1],"inconclusive: 14.2 µM [inhibitor, single point]"
same,Potency,[3],"inconclusive: 35.5 µM [inhibitor, single point]"
same,Potency,CRL-7250,active: 3.17 µM
same,Potency,HaCat,"inconclusive: 2.24 µM [inhibitor, single point]"
same,Potency,KB-3-1,active: 2 µM
same,Potency,C33A,"inconclusive: 12.6 µM [cytotoxic, single point]"
same,Potency,CAOV3,"inconclusive: 2.82 µM [cytotoxic, single point]"
same,Potency,CASKI,"inconclusive: 10 µM [cytotoxic, single point]"
same,Potency,Es-2,active: 3.55 µM
same,Potency,HeLa,"inconclusive: 11.2 µM [cytotoxic, single point]"
same,Potency,Hek293T,active: 3.98 µM
same,Potency,JEG-3,"inconclusive: 14.1 µM [cytotoxic, single point]"
same,Potency,OV90,"inconclusive: 17.8 µM [cytotoxic, single point]"
same,Potency,PA-1,active: 2 µM
same,Potency,SKOV3,active: 11.2 µM
same,Potency,Tov-21-G,"inconclusive: 4.47 µM [cytotoxic, partial curve, poor fit]"
same,Potency,Tov112D,active: 4.47 µM
O=C(Nc1ccc(S(=O)(=O)C(F)(F)F)cc1)C1=CCN(c2ncccc2C(F)(F)F)CC1,Potency,[1],active: 14.6 µM
same,Potency,[3],"inconclusive: 14.1 µM [inhibitor, full curve]"
same,Potency,CRL-7250,"inconclusive: 20.6 µM [inhibitor, single point]"
same,Potency,HaCat,"inconclusive: 29.1 µM [inhibitor, single point]"
same,Potency,KB-3-1,active: 23.1 µM
same,Potency,C33A,"inconclusive: 35.5 µM [cytotoxic, partial curve, poor fit]"
same,Potency,CAOV3,"inconclusive: 39.8 µM [cytotoxic, single point]"
same,Potency,CASKI,"inconclusive: 22.4 µM [cytotoxic, partial curve, poor fit]"
same,Potency,Es-2,"inconclusive: 28.2 µM [cytotoxic, partial curve, poor fit]"
same,Potency,HeLa,"inconclusive: 28.2 µM [cytotoxic, single point]"
same,Potency,Hek293T,"inconclusive: 39.8 µM [cytotoxic, single point]"
same,Potency,OV90,"inconclusive: 31.6 µM [cytotoxic, single point]"
same,Potency,PA-1,"inconclusive: 39.8 µM [cytotoxic, single point]"
same,Potency,SKOV3,"inconclusive: 28.2 µM [cytotoxic, partial curve, poor fit]"
same,Potency,Tov112D,"inconclusive: 35.5 µM [cytotoxic, single point]"
CCCC(Nc1nc(-c2ccc(NC(=O)NCC)c(OC)c2)ncc1C)c1cccnc1 (configuration not stated),Potency,[1],active: 1.16 µM
same,Potency,[4],active: 0.115 µM
same,Potency,CRL-7250,active: 0.206 µM
same,Potency,HaCat,"inconclusive: 29.1 µM [inhibitor, single point]"
same,Potency,KB-3-1,active: 0.146 µM
same,Potency,NIH3T3,"inconclusive: 0.164 µM [inhibitor, full curve]"
same,Potency,C33A,"inconclusive: 0.199 µM [cytotoxic, full curve, poor fit]"
same,Potency,CASKI,"inconclusive: 0.224 µM [cytotoxic, full curve]"
same,Potency,Es-2,active: 0.251 µM
same,Potency,HeLa,active: 0.158 µM
same,Potency,Hek293T,"inconclusive: 0.316 µM [cytotoxic, full curve]"
same,Potency,JEG-3,"inconclusive: 0.282 µM [cytotoxic, full curve, poor fit]"
same,Potency,OV90,"inconclusive: 0.355 µM [cytotoxic, partial curve, poor fit]"
same,Potency,PA-1,active: 0.251 µM
same,Potency,SKOV3,"inconclusive: 1.41 µM [cytotoxic, full curve, poor fit]"
